Consider five molecules from PMC6005816.

By UniProt entry, the sequences of proteins in these tests, tags left out. Where a name states a change or a piece, a line headed by the entry shows the natural chain unless it says otherwise. Residues count along the entry.
UniProt O60826: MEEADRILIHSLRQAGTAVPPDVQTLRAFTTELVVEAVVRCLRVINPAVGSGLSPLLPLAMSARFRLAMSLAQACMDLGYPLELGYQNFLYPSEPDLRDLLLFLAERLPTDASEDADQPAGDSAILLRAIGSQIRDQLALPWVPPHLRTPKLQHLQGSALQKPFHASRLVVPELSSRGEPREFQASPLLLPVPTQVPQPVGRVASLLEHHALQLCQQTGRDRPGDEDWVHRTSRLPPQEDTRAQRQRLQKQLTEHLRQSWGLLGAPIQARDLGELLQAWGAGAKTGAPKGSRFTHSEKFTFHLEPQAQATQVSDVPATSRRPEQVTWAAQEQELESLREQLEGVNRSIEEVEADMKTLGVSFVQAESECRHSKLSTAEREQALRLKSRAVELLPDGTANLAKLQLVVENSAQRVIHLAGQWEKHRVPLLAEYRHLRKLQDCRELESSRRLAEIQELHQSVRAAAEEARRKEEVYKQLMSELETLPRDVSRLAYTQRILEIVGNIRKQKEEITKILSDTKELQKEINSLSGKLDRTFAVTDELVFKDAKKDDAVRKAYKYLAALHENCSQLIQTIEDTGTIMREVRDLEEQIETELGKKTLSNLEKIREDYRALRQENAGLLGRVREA
myc-CCDC22 (1–322): residues 1-322 of O60826
myc-CCDC22 (1–143): residues 1-143 of O60826
myc-CCDC22 (144–627): residues 144-627 of O60826
myc-CCDC22 (323–627): residues 323-627 of O60826
UniProt Q567U6: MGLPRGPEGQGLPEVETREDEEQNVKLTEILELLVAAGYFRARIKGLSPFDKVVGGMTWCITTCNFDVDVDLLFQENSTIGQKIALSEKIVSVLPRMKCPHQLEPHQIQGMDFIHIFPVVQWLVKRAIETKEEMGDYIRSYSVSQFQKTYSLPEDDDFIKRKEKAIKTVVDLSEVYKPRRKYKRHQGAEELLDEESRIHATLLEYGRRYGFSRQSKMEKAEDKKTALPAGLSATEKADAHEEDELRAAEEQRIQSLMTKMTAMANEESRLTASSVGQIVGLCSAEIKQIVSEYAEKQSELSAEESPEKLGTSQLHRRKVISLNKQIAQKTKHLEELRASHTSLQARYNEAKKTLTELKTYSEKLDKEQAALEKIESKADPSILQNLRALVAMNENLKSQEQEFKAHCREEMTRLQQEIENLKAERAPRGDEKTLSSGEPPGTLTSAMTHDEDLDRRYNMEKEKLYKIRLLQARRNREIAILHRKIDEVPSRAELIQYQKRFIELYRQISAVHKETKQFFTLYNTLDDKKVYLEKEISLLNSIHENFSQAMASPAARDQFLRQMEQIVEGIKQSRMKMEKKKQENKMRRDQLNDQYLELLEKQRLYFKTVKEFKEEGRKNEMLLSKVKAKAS
UniProt Q8N668: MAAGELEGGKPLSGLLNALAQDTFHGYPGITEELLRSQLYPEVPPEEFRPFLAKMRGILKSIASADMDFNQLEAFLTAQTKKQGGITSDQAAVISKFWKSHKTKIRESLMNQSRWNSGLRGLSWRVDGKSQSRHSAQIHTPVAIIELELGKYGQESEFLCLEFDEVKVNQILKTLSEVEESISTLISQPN

Read-outs that look alike come from different tables or passages of the source. These are yes or no findings as the source states them, for the method shown. For part of these data: Binding seen in cells or lysates may run through a third protein. Some results given as binding are weak or reduced against the parent protein; the word gives no strength. For part of these data: Where a sequence is shown, tags or fusion partners need not be part of it.

The target of one experiment is T1, VPS33B-GFP (human) (UniProt Q9H267).
T1 sequence: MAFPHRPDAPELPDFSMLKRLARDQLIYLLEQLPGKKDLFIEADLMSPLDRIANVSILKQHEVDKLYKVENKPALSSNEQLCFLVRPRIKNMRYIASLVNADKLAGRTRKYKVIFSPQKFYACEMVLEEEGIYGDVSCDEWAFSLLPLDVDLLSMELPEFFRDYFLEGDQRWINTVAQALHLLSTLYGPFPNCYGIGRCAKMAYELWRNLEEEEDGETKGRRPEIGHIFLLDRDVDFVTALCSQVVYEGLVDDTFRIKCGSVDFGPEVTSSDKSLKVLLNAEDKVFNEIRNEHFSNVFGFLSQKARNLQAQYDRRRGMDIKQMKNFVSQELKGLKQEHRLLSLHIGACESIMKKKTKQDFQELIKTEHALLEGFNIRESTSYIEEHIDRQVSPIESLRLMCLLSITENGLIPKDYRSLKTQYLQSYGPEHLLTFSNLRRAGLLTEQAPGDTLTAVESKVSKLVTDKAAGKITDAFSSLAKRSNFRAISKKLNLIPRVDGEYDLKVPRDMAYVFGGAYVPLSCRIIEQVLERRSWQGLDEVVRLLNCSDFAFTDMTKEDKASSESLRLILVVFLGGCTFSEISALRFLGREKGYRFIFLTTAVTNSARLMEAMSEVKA
Briefly: co-IP; GFP-Trap on lysates of HEK293T cells transfected with VPS33B-GFP only; blotted for endogenous proteins.

In experiment [1] the target is myc-CCDC22 R128Q, expressed in HEK293T (human) (UniProt O60826). Briefly: co-IP; Myc-Trap on lysates of HEK293T cells transfected with full-length, point-mutant or truncated myc-CCDC22; blotted for endogenous proteins.
Experiment [2] addresses myc-CCDC22 (full length, 1–627), expressed in HEK293T (human) (UniProt O60826). The experiment is described as above.
Experiment [3] concerns the target myc-CCDC22 (1–322) (human) (UniProt O60826). The description is as above.
For experiment [4], the target named is myc-CCDC22 T17A, expressed in HEK293T (human) (UniProt O60826). The description is as above.
Experiment [5] concerns the target myc-CCDC22 (323–627) (human) (UniProt O60826). The description is as above.
Experiment [6] concerns the target myc-CCDC22 E239K, expressed in HEK293T (human) (UniProt O60826). The description is as above.
The target of experiment [7] is myc-CCDC22 T30A, expressed in HEK293T (human) (UniProt O60826). The description is as above.
The target in experiment [8] is myc-CCDC22 R321W, expressed in HEK293T (human) (UniProt O60826). Described as above.
Experiment [9] deals with endogenous CCDC93 (human (endogenous in HEK293T)) (UniProt Q567U6). Description: SEC; whole-cell fractionation: lysates of untransfected HEK293T cells (also THP-1, HaCaT, HGT-1; with or without 0.5 mM EDTA) on Superose 6 10/300 in 10 mM Tris pH 7.5, 150 mM NaCl, 0.5% NP-40; fractions immunoblotted. (In gel filtration, larger molecules generally elute earlier.)
The target of experiment [10] is endogenous COMMD1 (human (endogenous in HEK293T)) (UniProt Q8N668). Described as above.
For experiment [11], the target named is T2, GST-VIPAR, co-expressed in E. coli (UniProt Q9H9C1).
T2 sequence: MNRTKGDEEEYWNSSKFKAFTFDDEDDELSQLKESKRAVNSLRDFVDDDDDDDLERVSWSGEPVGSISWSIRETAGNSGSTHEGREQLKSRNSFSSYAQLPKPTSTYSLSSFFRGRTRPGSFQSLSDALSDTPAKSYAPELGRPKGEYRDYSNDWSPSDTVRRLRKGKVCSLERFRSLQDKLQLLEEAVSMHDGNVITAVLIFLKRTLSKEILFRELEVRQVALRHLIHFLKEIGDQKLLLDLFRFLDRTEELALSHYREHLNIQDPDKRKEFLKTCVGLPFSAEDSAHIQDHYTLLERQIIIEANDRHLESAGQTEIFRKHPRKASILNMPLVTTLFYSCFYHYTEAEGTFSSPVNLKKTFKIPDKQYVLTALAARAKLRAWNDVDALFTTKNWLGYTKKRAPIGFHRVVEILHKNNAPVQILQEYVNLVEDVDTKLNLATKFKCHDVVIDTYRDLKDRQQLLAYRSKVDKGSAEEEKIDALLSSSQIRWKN
Description: pull-down + SEC; co-expression in E. coli B834(DE3); co-purified on glutathione sepharose 4B by the GST on VIPAR, then Superdex 200 10/300 GL in 20 mM Tris pH 7.5, 200 mM NaCl, 1 mM DTT; bands confirmed by mass fingerprinting.

Experiment [12] deals with T3, endogenous VIPAR (human (endogenous in HEK293 Flp-In T-REx, HEK293T)) (UniProt Q9H9C1).
T3 sequence: T2 sequence
Description: SEC; whole-cell fractionation: lysates of untransfected HEK293T cells (also THP-1, HaCaT, HGT-1; with or without 0.5 mM EDTA) on Superose 6 10/300 in 10 mM Tris pH 7.5, 150 mM NaCl, 0.5% NP-40; fractions immunoblotted.

Experiment [13] deals with myc-CCDC22 R128Q, expressed in HEK293T (human) (UniProt O60826). Briefly: co-IP; Myc-Trap on lysates of HEK293T cells transfected with full-length, point-mutant or truncated myc-CCDC22; blotted for endogenous proteins. The source holds these as a separate data set.
Experiment [14] has as its target myc-CCDC22 (1–322) (human) (UniProt O60826). Described as above. The source holds these as a separate data set.
Experiment [15] addresses myc-CCDC22 T17A, expressed in HEK293T (human) (UniProt O60826). The description is as above. This is another data set of the same source.
Experiment [16] addresses myc-CCDC22 (323–627) (human) (UniProt O60826). Described as above. The source holds these as a separate data set.
In experiment [17] the target is myc-CCDC22 E239K, expressed in HEK293T (human) (UniProt O60826). The experiment is described as above. The source holds these as a separate data set.
The target of experiment [18] is myc-CCDC22 T30A, expressed in HEK293T (human) (UniProt O60826). Described as above. The source holds these as a separate data set.
In experiment [19] the target is myc-CCDC22 R321W, expressed in HEK293T (human) (UniProt O60826). Described as above. This is another data set of the same source.
Experiment [20] deals with myc-CCDC22 (144–627) (human) (UniProt O60826). Described as above.
Experiment [21] has as its target myc-CCDC22 (1–143) (human) (UniProt O60826). The experiment is described as above.

Take “endogenous CCDC93 (from UniProt Q567U6 1-631)”: the binding entry with VPS33B-GFP (human) is on record as “no binding”; in [1], “binds”; in experiment [2], “binds”; in [3] it was “binds”; in experiment [4], “binds”; in experiment [5], “binds”. The binding result in [6], in experiment [7] and in experiment [8] was “binds” in each case.

Consider “endogenous CCDC22 (from UniProt O60826 1-627)”, for which the binding entry in experiment [9] and in [10] was “binds” throughout.

On to “endogenous COMMD1 (from UniProt Q8N668 1-190)”, for which the binding result with VPS33B-GFP (human) is listed as “no binding”; in experiment [1], “binds”; in [2], “binds”; in experiment [3], “binds”; in [4], “binds”; in experiment [6], “binds”. Further, the binding result in [7] and in experiment [8] was “binds” in each case.

B1: VPS33B, co-expressed in E. coli (protein, UniProt Q9H267 1-617)
chain: T1 sequence
As to B1, the binding result in experiment [11] was “binds”.

B2: endogenous VPS33B (protein, UniProt Q9H267 1-617)
chain: T1 sequence
As to B2, the binding entry in experiment [12] was “binds”; in experiment [13] it was “binds”; in [14], “no binding”; in experiment [15] it was “binds”; in experiment [16], “binds”; in experiment [17], “binds”. In addition, the binding result in [18] was “binds”; in experiment [19], “binds”; in experiment [20], “binds”; in experiment [21], “no binding”.
